Hit rate of the full screen: of about 310,000 compounds, about 14,000 (4.5%) showed an effect of 50% or more. Effects have a minus sign here. This is one part of the list.
target: human ether-à-go-go-related gene (hERG) potassium channel (human, UniProt Q12809); experiment: primary screen, population patch clamp on CHO cells stably expressing hERG
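Further: peak tail current of the secondary pulse compared with the same well before compound.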

Chain of human ether-à-go-go-related gene (hERG) potassium channel (Q12809 whole entry, looked up): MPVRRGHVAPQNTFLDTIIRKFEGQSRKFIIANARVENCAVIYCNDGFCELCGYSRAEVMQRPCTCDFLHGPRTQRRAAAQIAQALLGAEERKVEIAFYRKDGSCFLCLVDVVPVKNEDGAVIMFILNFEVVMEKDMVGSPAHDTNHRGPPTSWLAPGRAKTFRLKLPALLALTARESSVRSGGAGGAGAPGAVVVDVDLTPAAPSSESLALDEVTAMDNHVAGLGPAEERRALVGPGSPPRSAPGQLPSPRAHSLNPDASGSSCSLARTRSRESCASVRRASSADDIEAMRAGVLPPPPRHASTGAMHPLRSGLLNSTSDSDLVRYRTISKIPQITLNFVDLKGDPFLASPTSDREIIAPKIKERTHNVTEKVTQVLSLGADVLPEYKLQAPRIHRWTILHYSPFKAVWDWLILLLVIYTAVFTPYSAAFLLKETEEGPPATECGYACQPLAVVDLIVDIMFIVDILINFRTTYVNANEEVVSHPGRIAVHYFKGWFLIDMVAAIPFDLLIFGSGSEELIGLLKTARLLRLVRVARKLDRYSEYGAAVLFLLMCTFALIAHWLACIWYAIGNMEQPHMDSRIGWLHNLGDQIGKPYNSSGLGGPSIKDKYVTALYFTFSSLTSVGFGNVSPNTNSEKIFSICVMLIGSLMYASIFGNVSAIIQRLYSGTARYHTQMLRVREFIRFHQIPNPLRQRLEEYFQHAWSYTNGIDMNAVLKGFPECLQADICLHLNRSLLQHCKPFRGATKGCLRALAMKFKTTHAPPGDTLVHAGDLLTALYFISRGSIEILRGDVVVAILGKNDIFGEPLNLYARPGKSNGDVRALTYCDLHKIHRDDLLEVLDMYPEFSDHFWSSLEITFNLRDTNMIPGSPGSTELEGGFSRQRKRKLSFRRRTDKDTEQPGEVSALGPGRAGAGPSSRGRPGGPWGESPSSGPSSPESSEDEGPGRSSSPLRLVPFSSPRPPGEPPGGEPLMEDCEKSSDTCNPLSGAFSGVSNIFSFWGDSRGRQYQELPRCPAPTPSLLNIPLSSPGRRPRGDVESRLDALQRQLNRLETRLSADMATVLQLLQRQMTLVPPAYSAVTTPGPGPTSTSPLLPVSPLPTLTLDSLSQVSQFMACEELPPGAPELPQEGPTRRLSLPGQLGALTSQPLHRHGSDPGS

SMILES	hERG current change (%, negative = inhibition) at 10uM
Cc1ccccc1NC(=S)Nn1cnnc1	16.7%
Cn1c(=O)c2c(nc(Oc3ccc4c(c3)OCO4)n2Cc2ccc(Cl)cc2)n(C)c1=O	9.89%
CC1CCCN(S(=O)(=O)c2ccc(NC(=O)C3CCN(C(=O)C(C)(C)C)CC3)cc2)C1 (stereo not shown)	-5.21%
Cc1ccc(Cn2nnc3c(=O)n(CC(=O)N4CCCCC4)cnc32)cc1	-11.1%
COc1cccc(C(CC(=O)Nc2cccc3ccccc23)NC(=O)c2ccccc2)c1 (stereo not shown)	3.42%
Cn1nc(C(=O)Nc2sccc2C(N)=O)ccc1=O	15.3%
COc1ccc(Br)cc1CNC(C)c1ccccc1 (stereo not shown)	-19.8%
CN1CCN(c2c(F)cc3c(=O)c(C(=O)O)cn4c3c2SCC4)CC1.Cl	13.6%
COc1ccccc1N1CCN(C(=O)c2cccs2)CC1	1.78%
CCOc1ccc(-n2c(SCc3nc(-c4ccc(C)cc4)no3)nnc2-c2ccncc2)cc1	-73.2%
O=C(NCC(O)CO)c1csc(Nc2cccc3ccccc23)n1 (stereo not shown)	-2.43%
Cc1nn(CC(=O)NCc2ccccc2)c(C)c1[N+](=O)[O-]	-1.51%
CC(=O)c1ccc(NC(=O)C(C)Sc2nnc3ccccn23)cc1 (stereo not shown)	-4.83%
CN(C)c1nc(N)c2ncc(=S)[nH]c2n1	16.9%
Cc1ccccc1C(OCC(O)CN1CCCCC1CCO)c1ccccc1 (stereo not shown)	-61.6%
Brc1cccc(CNn2cnnc2)c1	14.5%
CCCn1nc(C(=O)NC2CC2)c2ccccc2c1=O	-19.8%
Cn1c(CSc2nc3ccccc3s2)nnc1SCC(=O)NCCN1CCOCC1	6.22%
O=C(COC(=O)C1CCN(S(=O)(=O)c2cccc3cccnc23)CC1)c1ccccc1	7.23%
N#C/C(=C\c1ccc([N+](=O)[O-])cc1)C(=O)Nc1ccccc1O	-5.87%
CCn1cc(C(=O)NC(C)CCc2ccccc2)c(=O)c2cc(S(=O)(=O)N(C)C)ccc21 (stereo not shown)	-21.1%
COc1ccc(Nc2ccc(S(=O)(=O)N3CCCCC3)cc2[N+](=O)[O-])cc1Cl	-4.46%
Cc1ccc(-n2nnnc2SC(C)C(N)=O)c(C)c1 (stereo not shown)	11.9%

SMILES	hERG current change (%, negative = inhibition) at 10uM
Cc1cccc2nc(CSc3ncccc3C(=O)O)cn12	13.3%
CC(NC(=O)C12CC3CC(CC(C3)C1)C2)c1ccc2c(c1)OCCO2 (stereo not shown)	6.1%
CC(C)(C)OC(=O)N1CCC(C(=O)N2CCOCC2)CC1	11.3%
COc1ccccc1-c1noc(CCC(=O)Nc2ccccc2Cl)n1	-4.71%
Cl.Nc1nc(C2C(=O)CCCC2=O)cs1	9.89%
Cc1sc(NC(=O)c2cccs2)c(C(=O)OC(C)C)c1C	12%
CCn1c(NC(=O)c2nn(C)cc2Br)nc2ccccc21	-7.65%
Cc1nc2ccccc2c(=O)n1NC(=O)c1ccccc1F	5.02%
Cc1ccc(C(=O)N/C(=C/c2ccc(-c3ccc(Br)cc3)o2)C(=O)NC2CCS(=O)(=O)C2)cc1 (stereo not shown)	-6.35%
COc1ccc(NC(=O)NCCCN2CCCCC2C)cc1 (stereo not shown)	-10.6%
CC(C)(CO)NC(=O)c1ccc2c(c1)C(=O)c1ccccc1-2	0.123%
Cc1ccccc1C(=O)NCC(=O)Nc1ccc(C)c(S(=O)(=O)N2CCCCCC2)c1	-44.1%
CNC(=O)c1cc2cc(Cl)cc(OC)c2oc1=O	11.8%
COC(=O)c1ccc(COc2ccc(-c3nnn(CC(=O)NC(C)(C)C)n3)cc2)cc1	10.6%
O=C(NC(=S)Nc1ccc2oc(=O)ccc2c1)c1ccco1	9.84%
Cc1ccc(-c2nc(CSCC(=O)N3CCN(c4ccccn4)CC3)c(C)o2)cc1	-25%
CC(C)[C@H]1C=C(C(=O)O)O[C@@H](OCc2ccc(CO)cc2)C1	7.27%
O=C(CSCc1ccc(Br)cc1)NCc1ccccn1	3.67%
CCOC(=O)N1CCN(c2c(NCCc3ccc(OC)c(OC)c3)c(=O)c2=O)CC1	2.71%
COc1ccc(N)cc1C#N	-1.71%
Cc1ccc(-c2oc3ccccc3c(=O)c2OCC(=O)O)cc1	7.74%
O=C(Nc1ccc(Oc2ccccc2)cc1)C1CCN(c2ncccn2)CC1	0.064%
Cc1nn(CC(=O)N(C)Cc2ccccc2)c(=O)c2cccn12	16.7%

SMILES	hERG current change (%, negative = inhibition) at 10uM
O=C(CN1CCCN(Cc2ccc(F)cc2Cl)C1=O)NC1CCCC1	5.61%
COC(=O)c1ccccc1NC(=O)NCCc1ccc(OC)c(OC)c1.Cl	27.7%
Cc1cc(N2C(=O)CC(N3CCN(c4ccc(C(=O)c5cccs5)cc4)CC3)C2=O)no1 (stereo not shown)	-37.3%
COc1ccc(C(=O)Nc2ccccc2NC(=O)c2ccco2)cc1OC	-26.3%
CCOC(=O)c1[nH]cnc1C(=O)Nc1ccncc1	-2.36%
Cc1cccc(-n2c(CCn3nc(C)c([N+](=O)[O-])c3C)n[nH]c2=S)c1	6.85%
O=C(CSc1n[nH]c(=O)n1C1CC1)Nc1ccc(Cl)c(Cl)c1	-19.6%
Nc1ccc2nc(-c3ccc(Cl)cc3)[nH]c2c1	-5.75%
COc1ccc(N2C(=NC(C)=O)SC3CS(=O)(=O)CC32)cc1OC (stereo not shown)	-2.83%
COC(=O)c1ccc(N2CCN(C)CC2)c(NC(=O)COc2ccccc2)c1	-43.9%
COc1ccc(-n2c(Cc3cccn3C)nnc2SCC(=O)Nc2ccc(F)cc2F)cc1	-57.4%
C=C1C(=O)O[C@@H]2C[C@@H](C)[C@@H]3C=CC(=O)[C@@]3(C)[C@@H](OC(=O)CC(=O)O[C@H]3[C@@H]4C(=C)C(=O)O[C@@H]4C[C@@H](C)[C@@H]4C=CC(=O)[C@]43C)[C@H]12	-38.6%
CCCc1cc(C(=O)Cc2ccc(C(=O)OCC)o2)c(O)cc1O	-0.564%
CCCn1nnnc1NC(=O)c1ccc2ccccc2c1	13.6%
COc1cccc(CN2CCN(C(=O)c3oc4c(F)cccc4c3C)CC2=O)c1	1%
O=C(CSc1ccc(Cl)cc1)NCC1CCCO1 (stereo not shown)	-0.18%
CSCC[C@@H](CO)NC(=O)c1ccc2nc(C3CCCCC3)oc2c1	4.75%
CSc1nc(NC(C)=O)nc(C)c1Br	-0.891%
O=C(Nc1cc(C(F)(F)F)ccc1Cl)c1cccc(N2C(=O)CCC2=O)c1	10.7%
COc1ccc(NC(=O)CC(CC(=O)O)c2cc(OC)c(OC)c(OC)c2)cc1 (stereo not shown)	7.3%
CC(C)Sc1ncnc2c1oc1ccccc12	-2.07%
O=C(Nc1ccccc1)Nc1ccccc1Br	6.94%
Cc1ccc(CNC(=O)C2=CCN(S(=O)(=O)c3ccc(C)cc3)CC2)cc1	-22.1%

SMILES	hERG current change (%, negative = inhibition) at 10uM
COc1ccccc1C(=O)NCCC(=O)N(C)Cc1cccs1	-2.13%
O=[N+]([O-])c1cccc(CN2CCCCCC2)c1	5.75%
N#C/C(=C/c1ccc(-c2ccccc2)o1)c1nc(-c2cccs2)cs1	9.15%
Nc1c(S(=O)(=O)c2cccs2)c2nc3ccccc3nc2n1CC1CCCO1 (stereo not shown)	0.762%
COc1cccc2sc(NN)nc12	19.1%
NC(=O)CC(NC(=O)Cc1ccc(Br)cc1)c1ccc(NCCOc2ccccc2)c([N+](=O)[O-])c1 (stereo not shown)	-2.98%
COC(=O)C1=C(C)N(Cc2cccnc2)C(=O)C1	-0.706%
c1ccc(Nc2nnc(-c3cccnc3)s2)cc1	27%
COCCCNC(=S)N1CCN(Cc2ccc3c(c2)OCO3)CC1	13%
COc1ccc(N2CCN(C(=O)COc3ccc(S(=O)(=O)N4CCOCC4)cc3C)CC2)cc1	-20.3%
O=C(Cc1ccccc1)Nc1nnc(-c2cccs2)s1	-1.98%
Clc1ccccc1Cc1noc(CN2CCSCC2)n1	9.32%
Cc1cc(=O)oc(C)c1C(=O)NCCC(C)C	-15.3%
Cc1ccc(CCNC(=O)CCCn2nc(C)c3c(C)n(-c4ccc(C)cc4)nc3c2=O)cc1	-28.5%
Cc1ccc(C(=O)Cn2c(C)cc(C)c(C#N)c2=O)cc1	9.35%
Cc1ccc(CSC2=NCCN2S(=O)(=O)c2ccccc2)cc1	1.47%
O=C(Cn1cnc2c(cnn2-c2ccccc2)c1=O)N1CCN(c2ccc(F)cc2)CC1	-8.46%
NNc1nc2ccc(F)cc2s1	-15.7%
O=C(Nc1nc(=O)[nH]s1)c1ccccc1	26.9%
Cc1nn(-c2nc3ccccc3s2)c(N)c1-c1ccccc1	-2.54%
Cn1c(=O)c2c(n(Cc3ccccc3)c1=O)NC(=O)C2CC(=O)O (stereo not shown)	12.6%
CC(C)Nc1nnc(SCC(=O)Nc2ccc3c(c2)C(=O)c2ccccc2C3=O)s1	-2.55%

— paper PMC4336329 (PLoS ONE, 2015)
